# Hit rate of the full screen: of about 110,000 compounds, about 230 (0.21%) showed an effect of 50% or more. This is one part of the list.
# Molecular target: DPAP1 (Plasmodium falciparum, UniProt Q8IIJ9)
# Test: primary screen, percent inhibition; read by cleavage of a fluorogenic dipeptide substrate; higher = more effect of the substance
# Parameters: species or system P. falciparum D10 trophozoite lysates; single well
# 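Note: 30 min substrate incubation versus DMSO and 10 µM JCP410 controls.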
# Chain of DPAP1 (Q8IIJ9 whole entry, looked up): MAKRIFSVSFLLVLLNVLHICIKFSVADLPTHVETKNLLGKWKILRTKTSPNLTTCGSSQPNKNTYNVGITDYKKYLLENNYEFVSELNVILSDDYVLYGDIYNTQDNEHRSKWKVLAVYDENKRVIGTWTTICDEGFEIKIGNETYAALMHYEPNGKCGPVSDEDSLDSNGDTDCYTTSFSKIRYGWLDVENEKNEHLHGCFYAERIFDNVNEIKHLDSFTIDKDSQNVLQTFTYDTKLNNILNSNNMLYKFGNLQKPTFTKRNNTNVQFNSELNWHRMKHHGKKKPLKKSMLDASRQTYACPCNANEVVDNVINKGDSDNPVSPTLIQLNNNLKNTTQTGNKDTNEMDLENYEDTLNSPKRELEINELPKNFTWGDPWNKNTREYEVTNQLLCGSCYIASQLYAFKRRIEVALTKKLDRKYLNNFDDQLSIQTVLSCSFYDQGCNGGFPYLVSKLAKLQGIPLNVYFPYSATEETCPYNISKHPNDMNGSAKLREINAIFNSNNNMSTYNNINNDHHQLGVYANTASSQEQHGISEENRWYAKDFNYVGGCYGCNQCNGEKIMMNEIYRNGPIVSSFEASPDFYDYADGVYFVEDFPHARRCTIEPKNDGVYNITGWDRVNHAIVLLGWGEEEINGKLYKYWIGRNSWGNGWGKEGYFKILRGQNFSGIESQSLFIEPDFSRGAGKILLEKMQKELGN
row,Structure (SMILES),% Inhibition @ 10 uM
1,CCOC(=O)C1=C(CNCC23CC4CC(CC(C4)C2)C3)NC(=O)NC1c1ccc2c(c1)OCO2 (stereo not shown),-2.63%
2,Cc1nn(CC(=O)N2CCN(c3ccccn3)CC2)c(=O)c2cc3sccc3n12,7.91%
3,CC1CC(C)CC(S(=O)(=O)N2CCC(C(=O)O)CC2)C1 (stereo not shown),-0.256%
4,Cc1nnc(C)c2c(C)n(C(c3ccccc3)c3ccccc3)c(C)c12,3.54%
5,COc1ccc(OC)c(C2NC(=O)N(C)C(C)=C2C(=O)OCc2ccccc2)c1 (stereo not shown),6.11%
6,COCCCN(C(=O)Nc1cccc(Cl)c1)C(C)c1ccccn1 (stereo not shown),5.24%
7,Cn1c(=O)c2c(nc(Br)n2Cc2ccccc2Cl)n(C)c1=O,5.09%
8,O=C(NC1CC1)c1cc(-c2ccc(Cl)cc2)nc2ccccc12,-0.69%
9,COc1ccc(-c2cc(C(=O)NC3CCCC3)no2)cc1OC,8.5%
10,COC(=O)C1=C(C)N(CC2CCCO2)C(=O)/C1=C\c1cc(C)n(-c2cc(C)cc(C)c2)c1C (stereo not shown),-3.86%
11,Cc1cc(C)c2c(n1)SCC(=O)N2Cc1ccc(C(=O)NCc2ccc(Cl)cc2)cc1,-4.78%
12,CCCNC(=O)Cn1ncc2c(C)n(Cc3ccc(C)cc3)c(C)c2c1=O,-2.17%
13,Cc1ccc(NC(=O)Cn2cnc3c2c(=O)n(C)c(=O)n3C)nc1,-1.36%
14,CCCc1cc(O)n2nc(NC(=O)c3cc(OC)c(OC)c(OC)c3)nc2n1,-3.08%
15,CCN1CC2=C(OC(N)=C(C#N)C2c2cccs2)/C(=C\c2cccs2)C1 (stereo not shown),5.23%
16,c1nc(N2CCCCC2)c2c3c(sc2n1)CCCC3,2.6%
17,COC(=O)C1=C(C)NC(=O)/C1=C\c1ccc2c(c1)OCCO2,3.32%
18,CCOc1cc(CN2CCN(CC)CC2)ccc1OC,-1.86%
19,N#C/C(=C\c1ccccc1F)c1nc(-c2cccs2)cs1,2.41%
20,O=C(c1cc2c(Cl)nc3ccccc3c2s1)N1CCOCC1,3.33%
21,Cc1cccc(C(=O)Nc2ccc(NC(=O)c3cccc(C)c3)cc2)c1,3.64%
22,COc1ccc(-c2nc3s/c(=C\c4ccc(-c5ccc(C(C)=O)cc5)o4)c(=O)n3n2)cc1OC,-2.98%
23,CCC1SC2=NC(C)=C(C(=O)OCCOC)C(c3ccccc3)N2C1=O (stereo not shown),3.87%
24,O=C(Cn1c(C(F)(F)F)nc2ccccc21)NCCN1CCOCC1,1.28%
25,Cc1nnc2n1NC(c1ccc(Cl)cc1)C(C(=O)NCc1ccco1)S2 (stereo not shown),1.72%

row,Structure (SMILES),% Inhibition @ 10 uM
1,Cc1nn(CCCC(=O)NC(C)c2ccccc2)c(=O)c2c1sc1ccccc12 (stereo not shown),-3.43%
2,CO/C(O)=C1/C(C)=NC2=C(C(=O)CCC2)C1c1ccccc1 (stereo not shown),5.01%
3,COc1ccccc1C1N(c2cc(C)on2)C(=O)C2CCCN21 (stereo not shown),-0.499%
4,NS(=O)(=O)c1ccc(NC(=O)CN2C(=O)c3cccc4cccc(c34)C2=O)cc1,5.97%
5,CC(C)(C)c1ccc(C(=O)N2CCC3(CC2)N=C(c2ccccc2)C(=O)N3)cc1,-0.808%
6,Cc1ccc2nc(NC(=O)C3CC3c3ccccc3)sc2c1 (stereo not shown),1.67%
7,COCCNC(=O)c1sc2ncn(CC(=O)N3CCC(C)CC3)c(=O)c2c1C,-2.17%
8,CSc1nc2sc3c(c2c(=O)n1C)CCCC3,-0.267%
9,COc1ccc(OC)c(CCNC(=O)CSc2nnc(C)c3c(C)n(-c4ccccc4)nc23)c1,-5.71%
10,COc1ccc(N/C=C(/C#N)c2nc(-c3ccc(-c4ccccc4)cc3)cs2)cc1,0.62%
11,CC1CCCCN1C(=O)c1ccc(COc2ccccc2Br)cc1 (stereo not shown),3.72%
12,CC1=C(C(=O)Nc2ccccc2)C2(CCCCC2)C(C#N)=C(SCC(N)=O)N1,12.6%
13,CC(C)C[C@H](NC(=O)C1CCNCC1)C(=O)N[C@@H](CCc1ccccc1)C(=O)COc1ccccc1,2.04%
14,CC(C)NC(=O)CSCc1csc2c1CCCC2,-2.15%
15,O/N=C/C(=N/O)c1ccc(Br)cc1,-1.69%
16,COc1cc(C)cc2oc(=O)c(CC(=O)NCc3ccc(Cl)cc3)c(C)c12,-2.57%
17,Cc1nc(C)c(C(=O)NCCc2nc3ccccc3[nH]2)s1,2.41%
18,O=C(O)CNCCC(O)c1ccccc1 (stereo not shown),-3.96%
19,COc1ccc(S(=O)(=O)Nc2ccccc2NS(=O)(=O)c2ccc(OC)cc2)cc1,-5.37%
20,O=C(Nc1nc2ccccc2s1)c1cc2ccc3cccnc3c2[nH]1,-3.28%
21,CC(C)=CCC/C(C)=C/CN1CCCC(C(N)=O)C1 (stereo not shown),1.38%
22,Cc1cccc(NC(=O)COc2ccc(C(C)C)cc2)c1,2.59%
23,Cn1c(=O)c2c3c(sc2n2c(SCC(=O)c4ccc(Br)cc4)nnc12)CCC3,-0.178%
24,COc1ccc2c(c1)OC/C(=C\c1ccc(C)cc1)C2=O,5.55%
25,CCOc1ccc(/C=C2N=C(/C=C/c3ccc(Cl)cc3)OC/2=O)cc1,1.61%

row,Structure (SMILES),% Inhibition @ 10 uM
1,c1ccc(Nc2nc3ccccc3c3ccccc23)cc1,-0.856%
2,COc1ccc(Sc2ccc(C=C3C(=O)NC(=O)NC3=O)o2)cc1,4.74%
3,Cc1ccsc1CCNC(=O)c1cc(S(=O)(=O)N2CCCCC2)c[nH]1,-6.56%
4,CC(C)c1ccccc1OCC(=O)Nc1ccc(S(=O)(=O)N2CCOCC2)cc1,-1.44%
5,COc1ccc(C2C(C#N)=C(N)Oc3[nH]nc(C)c32)cc1COc1ccccc1Br (stereo not shown),0.687%
6,O=C1NCCN/C1=C\C(=O)c1ccc(F)cc1,0.279%
7,N#CC1=C(N)Oc2c(c(O)nc3ccccc23)C1c1cncc(-c2ccc(F)cc2)c1 (stereo not shown),22.7%
8,C=CCN1C(=O)N/C(=C/c2ccc(-c3cccc(C(F)(F)F)c3)o2)C1=O,11.5%
9,O=C1C2CC=C(Cl)CC2C(=O)N1CCC[n+]1cccc2ccccc21 (stereo not shown),5.3%
10,CCOC(=O)c1c(C)n(C)c2ccc(OCC(O)CN(CC)CC)cc12 (stereo not shown),2.1%
11,CC(C)NS(=O)(=O)c1ccc(-c2ccc(O)nn2)o1,-3.28%
12,COC(=O)c1nnn(-c2ccccc2)c1N,5.27%
13,CCN(CC)Cc1c(O)ccc2c(=O)c(Oc3ccccc3Br)coc12,4.86%
14,COc1ccc(/C=C(\C#N)C(=O)NCc2ccc(F)cc2)c(OC)c1OC,-11.9%
15,Cc1cc(C)c2nc(N3CCC(C(=O)NCCc4c[nH]c5ccccc45)CC3)sc2c1,-5.19%
16,COC(=O)c1cnn2c(C)c(Cc3ccc(C)cc3)c(C)nc12,-2.14%
17,O=C(CSc1ccccn1)Nc1ccccc1Br,-3.9%
18,O=C(Cc1ccc(Br)cc1)N(Cc1ccccc1)c1ccccn1,-5.92%
19,Clc1cccc(-c2nnc3sc(COc4ccccc4)nn23)c1,-0.45%
20,COc1ccc(-c2c(NCc3ccccc3Cl)c(=O)c2=O)cc1,0.0281%
21,CCCSc1nc(O)c2c3c(sc2n1)COC(C)(C)C3,7.39%
22,CCOC(=O)c1ccc2c(c1)C(=O)N(c1ccc(C)cc1)C2=O,1.52%
23,CCOC(=O)c1c(NC(=O)CSc2nc3ccccc3s2)sc2c1CCC2,1.52%
24,CCCOP(=O)(CN1CCOCC1)OCCC,5.53%
25,Cc1ccc(-c2cc(C(=O)Nc3ccc(C(N)=O)cc3)c3ccccc3n2)cc1,-6.02%

row,Structure (SMILES),% Inhibition @ 10 uM
1,COc1ccc(NC(=O)CSCC(=O)Nc2ccccc2Cl)cc1,-0.883%
2,O=C(O)c1cccc(CN2C(=O)S/C(=C/c3ccc(O)cc3)C2=O)c1,3.03%
3,O=C1S/C(=C\c2cccs2)C(=O)N1Cc1ccc(F)cc1,-3.13%
4,Cc1ccc(C(O)C#CC23CC4CC(CC(C4)C2)C3)o1 (stereo not shown),-0.725%
5,Cc1ccc(CNC(=O)C2CCN(S(=O)(=O)N3CCC4(CC3)OCCO4)CC2)cc1,-1.21%
6,CC(C)(C)c1ccc(S(=O)(=O)N(CCCN2CCOCC2)Cc2cccs2)cc1,2.05%
7,COc1cc(/C=C2\SC(Nc3ccc(Cl)cc3)=NC2=O)cc(OC)c1OC,1.05%
8,CC(O)CN(CC1=CC[C@H]2C[C@@H]1C2(C)C)CC(C)O (stereo partly shown),3.68%
9,CC(Oc1ccccc1)C(=O)Nc1ccc(Br)cc1 (stereo not shown),0.843%
10,N#CC1=C(N)N(c2cccc(Cl)c2)C2=C(C(=O)CCC2)C1c1ccc2c(c1)OCO2 (stereo not shown),0.536%
11,CCCNC(=O)CCc1nc(-c2ccccc2C)no1,-3.12%
12,CN(CC(=O)NC1CCCc2ccccc21)S(=O)(=O)c1ccc2[nH]c(-c3ccccc3)nc2c1 (stereo not shown),-1.67%
13,O=c1oc2ccccc2c2nccnc12,-8.01%
14,c1ccc(CNc2nc(-c3ccccc3)cc(-c3ccccc3)n2)cc1,-4.5%
15,O=C(NCc1cccnc1)c1ccccc1F,-1.25%
16,Cc1ccc(-c2nnc(N3CCN(C(=O)C4CCCCC4)CC3)c3ccccc23)cc1,-2.75%
17,O=C(O)CC1Nc2ccccc2NC1=O (stereo not shown),-4.35%
18,O=C(CCn1cnc2onc(-c3ccc(F)cc3)c2c1=O)NCc1cccnc1,-4.97%
19,O=C(O)C1Cc2c([nH]c3ccccc23)C(c2cccc(Cl)c2Cl)N1 (stereo not shown),-1.8%
20,COc1cc(OC)cc(-n2nnc(-c3nc(-c4ccccc4C)no3)c2N)c1,-2.72%
21,Cn1c(=O)c2c(nc(N3CCOCC3)n2C)n(C)c1=O,0.182%
22,CCOC(=O)C1CCN(Cc2ccc(F)cc2)CC1,-0.127%
23,C/C(=N\c1ccc2ccccc2c1)C1=C(O)CCCC1=O,-11.4%
24,CCOCCCNC(=O)c1ccc2nc(N3CCC(C)CC3)sc2c1,2.65%
25,Cc1c(-c2nsc(NC(=O)c3ccccc3)n2)nnn1-c1cccc(C(F)(F)F)c1,0.573%
